In PMC12136788:
This is one part of the list.

T1: UNK ZnF1-6 (called full-length) (human, UniProt Q9C0B0 30-357)
T1 sequence: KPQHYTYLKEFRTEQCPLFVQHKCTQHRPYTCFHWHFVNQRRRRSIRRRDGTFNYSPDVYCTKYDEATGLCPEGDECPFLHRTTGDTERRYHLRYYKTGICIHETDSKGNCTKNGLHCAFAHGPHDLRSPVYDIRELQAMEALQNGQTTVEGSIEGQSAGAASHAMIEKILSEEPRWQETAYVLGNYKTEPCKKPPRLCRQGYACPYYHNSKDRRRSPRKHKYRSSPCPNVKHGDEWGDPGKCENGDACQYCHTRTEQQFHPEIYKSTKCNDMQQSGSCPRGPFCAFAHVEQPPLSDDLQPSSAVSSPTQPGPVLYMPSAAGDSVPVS

B1: chr14:44924370:44924471:-|3pUTR|ENSG00000179454|unk|total|mutant (ssRNA)
RNA: GGGAGUUCUACAGUCCGACGAUCACCUUUUCCGCAUCAGGGUUUUAUUUUAUUUAUGUUUACACACUAAAGUGUCAUUUAACCCGUUAAGAAUUGUAUUCUUUUUUAUUUUAAAGGUUAUUUGUGUGUAUCAUUGUGGUAAUGCAACAGAGGAUUGAGCAUCA
B2: chr17:4671690:4673145:-|CDS|ENSG00000141456|control|control|control (ssRNA)
RNA: GGGAGUUCUACAGUCCGACGAUCGGAGGAAGAAGAACUGGAAGAGGUGGAAGACCUGGAGUUUGGCACAGCAGGAGGGGAGGUAGAAGAAGGUGCACCUCCACCCCCAACCCUGCCUCCAGCUCUGCCUCCCCCUGAGUCUCCCAACAGAGGAUUGAGCAUCA
B3: chr3:186556460:186556561:-|CDS|ENSG00000113838|unk|FALSE|unique (ssRNA)
RNA: GGGAGUUCUACAGUCCGACGAUCAGAGCCAGGAAGAUCUAUCCACUUCAUGAACUUGCACUGUGGCAACCACUGCAUGCAGAUAGUGGCUUCUCAAAGAUCUCUAAGACUUUCUCUUUCUACAAACUGGAAACCUGGUUGAGGCAACAGAGGAUUGAGCAUCA
B4: ENSG00000198589:be:win_8351|CDS|ENSG00000198589|bound_else_gene|NA|bound_elsewhere_windowed (ssRNA)
RNA: GGGAGUUCUACAGUCCGACGAUCUCACAGGAGGAGACAGAGGAGUGGUCGUGGUCCGGCAGGUGUCGGACCUCAAGCAGCUCUUUGCCUAUCCAGGAUGUGACGCUGGAAUCCGGGCCAUGGCGCUGUCUUACGACCAGAGGUCAACAGAGGAUUGAGCAUCA
B5: chr15:22826343:22826444:+|3pUTR|ENSG00000170113|msi1|FALSE|unique (ssRNA)
RNA: GGGAGUUCUACAGUCCGACGAUCAAAGUCCAUUACUCUUUUUAUUGGCUCUUGCAGGUUUUGUGUUUUAUCAUCAGUGCUUUUAGAAAUGCAGGCCUUAACUUACUGAACUGAACUUUCUGAAAACGUAAUGUAGCAGUAUCACAACAGAGGAUUGAGCAUCA
B6: ENSG00000107863:be:win_4501|CDS|ENSG00000107863|bound_else_gene|NA|bound_elsewhere_windowed (ssRNA)
RNA: GGGAGUUCUACAGUCCGACGAUCGAAGAACCCUCACCACCACACAACUCAAAACACAACAAGUCACCAACUCUCAGCUGUCGCUUUGCCAUCCUGAAAGAGAGCCCCAGGUCACUUCUGGCACAGAAGUCCUCCCACCUUGAACAACAGAGGAUUGAGCAUCA
B7: ENSG00000113758:stop:overlap|stop_codon|ENSG00000113758|stop_codon|NA|stop_codon (ssRNA)
RNA: GGGAGUUCUACAGUCCGACGAUCUCACAUGCUGGGAUGCAGACCCAGUUCCAGAAGAGGAGGAGGGCUUCGAGGGUGGUGAUUAGCGGUGGCGCCAGCCCUAGGCUACCCUUGCCAAGGCCGCCCACCUGCAUCAGCCUCUGGCAACAGAGGAUUGAGCAUCA
B8: chr12:49764829:49764866:+|3pUTR|ENSG00000139644|msi1_unk|total|mutant (ssRNA)
RNA: GGGAGUUCUACAGUCCGACGAUCACUUUUAAAGAAAAUACCUAACAGAUUUUUAAUACCGUUAUCUCUACCACUUUCUUUUCCCGUUUCUUGAUUUUCAGCUCAGGCUGCAUUCUAACUCAUACUGUGAAGACAAAGGUGUUUCAACAGAGGAUUGAGCAUCA
B9: chr16:74503563:74503676:-|CDS|ENSG00000090863|unk|total|mutant (ssRNA)
RNA: GGGAGUUCUACAGUCCGACGAUCGGCAACAUCACUGAGUAUCAGUGUCACCAGUACAUUACCAAGAUGACGGCCAUCAUUUUCCGUGAUUACCGUUUAAUCUGUGGCUUCAUGGAUGACUGCAAAAAUGACAUCAACAUUCUGCAACAGAGGAUUGAGCAUCA
B10: chr15:71825291:71825392:-|3pUTR|ENSG00000066933|unk|FALSE|unique (ssRNA)
RNA: GGGAGUUCUACAGUCCGACGAUCUGAAGCUAUUUUUGUUAAUAUUCUGGUUACUGAAGUUUAUUGUAAAUAUGUAUGUAUAGUAGGCAUAUUUCUUUUUAACCUUGUGCUUCCCUCCUUCCCAUGGAAUUUCUUCCCACAGAUCAACAGAGGAUUGAGCAUCA
B11: chr12:1780521:1780622:+|CDS|ENSG00000006831|msi1|total|mutant (ssRNA)
RNA: GGGAGUUCUACAGUCCGACGAUCCCCAAAUAUCUCCUUUGUGGCCCCUCUGCAAGAGAAGGUGGUCUUUGGAUUAUUUUUCUCCGGAGCCAUUCUCUGCCUUUCUUUUUCAUGGCUCUUCCACACAGUCUACUGCCACUCAGACAACAGAGGAUUGAGCAUCA
B12: chr2:69942770:69942871:+|3pUTR|ENSG00000059728|unk|total|mutant (ssRNA)
RNA: GGGAGUUCUACAGUCCGACGAUCUGUUUCCAGAUGUUUCUUUAUGUAAAUAUGACGCCAAUGUAAAUCCUGUGUCAAGAUCACCGAGAAUGGUGCUUUUUACUACAGUCCGCACAUGCAUUUUCCGAAACUACUACAUGUUUUCAACAGAGGAUUGAGCAUCA
B13: chr7:127374855:127374969:-|CDS|ENSG00000048405|unk|total|mutant (ssRNA)
RNA: GGGAGUUCUACAGUCCGACGAUCCCCCGAAGCCAUAUAUCCAAGUGUGGACAAACGAGAAUAUAUUAUUAAGCCCGAACCCACCGAAACUAAUCAAAAUGCAGUAUUUCAAUAUAUUUCGAGGACUGAUAAUCCUAUUGAAGUCAACAGAGGAUUGAGCAUCA
B14: ENSG00000124766:be:win_2151|3pUTR|ENSG00000124766|bound_else_gene|NA|bound_elsewhere_windowed (ssRNA)
RNA: GGGAGUUCUACAGUCCGACGAUCGUGUGACCGGCGCUAGGAAAUGACCCGAGAACCCCGUUGGAAGCGCAGCAGCGGGAGCUAGGGGCGGGGGCGGAGGAGGACACGAACUGGAAGGGGGUUCACGGUCAAACUGAAAUGGAUCAACAGAGGAUUGAGCAUCA
B15: ENSG00000189184:stop:overlap|stop_codon|ENSG00000189184|stop_codon|NA|stop_codon (ssRNA)
RNA: GGGAGUUCUACAGUCCGACGAUCUGGAUGCCAGUGAACUGGUGGCAGAGAUUAACAAACUGCUUCAAGAUGUCCGCCAGAGCUAGGAGAUUUUAGCGAAGCAUUUUUGUUUCCAUGUAUAUGGAAAUAGGGAACAACAACAACCAACAGAGGAUUGAGCAUCA
B16: chr7:6403675:6403689:+|3pUTR|ENSG00000136238|msi1_unk|FALSE|overlapping (ssRNA)
RNA: GGGAGUUCUACAGUCCGACGAUCACUGUCACUUGACCAAUACUGACCCUCUUUACCUCGCCCACGCGGACACACGCCUCCUGUAGUCGCUUUGCCUAUUGAUGUUCCUUUGGGUCUGUGAGGUUCUGUAAACUGUGCUAGUGCCAACAGAGGAUUGAGCAUCA
B17: chr7:101138926:101139078:+|3pUTR|ENSG00000106366|msi1|FALSE|unique (ssRNA)
RNA: GGGAGUUCUACAGUCCGACGAUCUAUUUUAAAGACCAAUUUAUGGGAGAAUUGCACACAGAUGUGAAAUGAAUGUAAUCUAAUAGAAGCCUAAUCAGCCCACCAUGUUCUCCACUGAAAAAUCCUCUUUCUUUGGGGUUUUUCCAACAGAGGAUUGAGCAUCA
B18: chr9:128583791:128583907:+|CDS|ENSG00000197694|unk|FALSE|bound_elsewhere (ssRNA)
RNA: GGGAGUUCUACAGUCCGACGAUCCAACCAGCAACAGCAAUUUAAUCGCAAUGUUGAGGAUAUUGAAUUGUGGCUAUAUGAAGUAGAAGGUCACUUGGCUUCGGAUGAUUACGGCAAAGAUCUUACCAAUGUGCAGAACCUCCACAACAGAGGAUUGAGCAUCA
B19: chr5:91369659:91369760:-|3pUTR|ENSG00000113369|msi1|total|mutant (ssRNA)
RNA: GGGAGUUCUACAGUCCGACGAUCUCAGCAUUUUCCAAGGUACCAAGUGUACUUAUUUUGUUGUUGUUGUUGUUGUUGUAUUUCCGAAGGAAUUCAGCUCUGAUGUUUUUAAAGAAAACCAGCAUCUCUGAUGUUGCAACAUACCAACAGAGGAUUGAGCAUCA
B20: ENSG00000107863:be:win_3851|CDS|ENSG00000107863|bound_else_gene|NA|bound_elsewhere_windowed (ssRNA)
RNA: GGGAGUUCUACAGUCCGACGAUCUGGCAGAAAAUUCAGAAAAAAAUAAGAUGGAACCAAGAAACCUAGCAAUAGUGUUUGGUCCCACCCUUGUUCGAACAUCAGAAGACAACAUGACCCACAUGGUCACCCACAUGCCUGACCCAACAGAGGAUUGAGCAUCA
B21: chr15:22866942:22867043:+|3pUTR|ENSG00000140157|msi1|total|mutant (ssRNA)
RNA: GGGAGUUCUACAGUCCGACGAUCUAAAGAUUUCACUAAUUUGGACCAAGAAAUUACUUUUCUUGUAUUUAAACAAACAAUGGCCGCUCACUAAAAUGACCUCAGCACAUGACGAUUUCUAUUAACAUUUUAUUGUUGCCGAAGCAACAGAGGAUUGAGCAUCA
B22: chr10:43183422:43183523:+|CDS|ENSG00000169826|msi1|FALSE|bound_elsewhere (ssRNA)
RNA: GGGAGUUCUACAGUCCGACGAUCUAAAGCCAUGAAUGAGGCCUCUCACUCCCACCUGGGAAUGCUGGUCUUCAGGGAGGAAAUAGAGACGCAUCUUCAUAAACAGGCAUACAGGACAAACAGUGAAGCUGUUGGUUGAAAUCACAACAGAGGAUUGAGCAUCA

What follows are binders tested against T1, UNK ZnF1-6 (called full-length) (assay: nsRBNS (natural sequence RNA bind-n-seq); RBNS binding buffer (assumed for nsRBNS): 25 mM Tris pH 7.5, 150 mM KCl, 3 mM MgCl2, 0.01% Triton X-100, 500 ug/ml BSA, 20 U/ml SUPERase-In, 4 C; UNK is unkempt and MSI1 is Musashi-1; names of the RNAs are library labels; protein concentration not given here; high values mean tight binding).

Binder | binding signal
B1 | 0.866 enrichment R
B2 | 0.794 enrichment R
B3 | 0.437 enrichment R
B4 | 0.939 enrichment R
B5 | 0.51 enrichment R
B6 | 0.977 enrichment R
B7 | 0.797 enrichment R
B8 | 0.495 enrichment R
B9 | 0.379 enrichment R
B10 | 0.797 enrichment R
B11 | 0.569 enrichment R
B12 | 0.355 enrichment R
B13 | 0.311 enrichment R
B14 | 1.08 enrichment R
B15 | 1.53 enrichment R
B16 | 1.05 enrichment R
B17 | 0.69 enrichment R
B18 | 0.502 enrichment R
B19 | 0.292 enrichment R
B20 | 0.381 enrichment R
B21 | 0.474 enrichment R
B22 | 0.591 enrichment R
